Laboratory results taken from PMC7483518, “Destabilizing single chain major histocompatibility complex class I protein for repurposed enterokinase proteolysis” (Scientific Reports, 2020).

Biological target: T1, photo-labile unchained HLA-A*11:01 MHC-I protein (Homo sapiens, UniProt P04439, A114D/D185E/E176A/F33Y/L180Q/S129P/T187R)
T1 construct: made in house
Assay: Photo-labile unchained MHC-I protein treated with UV, peptides and enterokinase (SDS-PAGE band volume)
Assay type: biochemical
Settings: Fig_S1a, UV 37C + Ek with peptide, SDS-PAGE band 1

Sequence | Adj. Volume (Int) (replicate 1 (lanes 1-14)) | Adj. Volume (Int) (replicate 2 (lanes 15-28))
SLLDYVREH [CS1017] | 11874744 Int | 8988147 Int
SLLDYVREHKDN [CS1050] | 12009312 Int | 12015738 Int
QLMPFGSLLDY [CS1032] | 13122963 Int | 9307746 Int
SLLDYVREHK [CS1027] | 11631879 Int | 10519299 Int
MQLMPFGCLLDY [TM1050] | 5645052 Int | 4409055 Int
FGSLLDYVREHK [CS1048] | 15950844 Int | 9994572 Int
GSLLDYVREHK [CS1037] | 10050768 Int | 8984178 Int
VAIKTSPKANK [EX1018, EGFR exon 19 deletion-derived peptide] | 9646371 Int | 6436647 Int
